# Source: the supplement of paper PMC3334620
# Over roughly 33,000 sequences, “E-score (-0.5 to 0.5)” has its median near -0.054; the highest 2% begin near 0.35. This is one part of the list.
# Molecular target: T1, Stb5 (UniProt P38699)
# T1 sequence: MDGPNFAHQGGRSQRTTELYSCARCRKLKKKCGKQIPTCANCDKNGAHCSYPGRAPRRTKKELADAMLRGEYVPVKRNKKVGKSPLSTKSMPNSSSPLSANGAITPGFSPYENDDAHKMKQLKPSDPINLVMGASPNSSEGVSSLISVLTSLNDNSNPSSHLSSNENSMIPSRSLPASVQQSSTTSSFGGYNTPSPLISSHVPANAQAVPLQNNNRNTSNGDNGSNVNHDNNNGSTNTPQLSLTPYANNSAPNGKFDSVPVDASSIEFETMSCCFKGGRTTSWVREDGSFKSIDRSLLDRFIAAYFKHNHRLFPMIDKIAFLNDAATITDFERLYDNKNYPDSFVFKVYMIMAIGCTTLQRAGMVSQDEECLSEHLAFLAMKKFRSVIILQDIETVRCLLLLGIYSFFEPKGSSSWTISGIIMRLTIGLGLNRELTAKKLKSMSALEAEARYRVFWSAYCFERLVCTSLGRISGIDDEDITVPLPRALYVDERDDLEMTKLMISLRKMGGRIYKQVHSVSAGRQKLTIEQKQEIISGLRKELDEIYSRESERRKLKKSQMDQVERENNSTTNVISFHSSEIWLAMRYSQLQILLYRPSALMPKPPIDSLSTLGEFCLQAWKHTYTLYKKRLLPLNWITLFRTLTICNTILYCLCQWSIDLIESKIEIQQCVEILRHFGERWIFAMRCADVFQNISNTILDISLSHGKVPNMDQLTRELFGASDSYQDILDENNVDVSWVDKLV
# Experiment: PBM E-score (8-mer binding enrichment) (E-score (-0.5 to 0.5)); higher = stronger / more preferred TF binding; most listed sequences are background and not binding sites
# Conditions: protein concentration: 200 nM; construct: GST-full length
# Method: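 Universal 'all 10-mer' protein binding microarrays (Agilent AMADID 015681) probed with GST-tagged S. cerevisiae TFs (full-length or DBD) made by in vitro transcription/translation (PURExpress), about 100-200 nM. Bound TF was detected with fluorescent anti-GST. Each ungapped 8-mer (which stands for itself and its reverse complement) is scored by the PBM enrichment score (E-score), a modified Wilcoxon-Mann-Whitney statistic from -0.5 to +0.5, computed with the Universal PBM Analysis Suite. Scale: above 0.35 generally sequence-specific binding.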
row,Sequence,PBM E-score
1,AGCGGTGG,0.346
2,CAAGCTCA,-0.237
3,AAGTCCTC,-0.066
4,AATCCTGT,-0.0858
5,ATTTATCA,0.185
6,AGGCCCGA,0.314
7,CATGTTTC,-0.14
8,CTCGTAAA,-0.11
9,TGATTGAA,-0.0389
10,ACGAAAGA,-0.152
11,CTCACTTA,-0.192
12,ATGACGCG,-0.0733
13,CGCCCTAG,0.0592
14,CACGTGGA,-0.111
15,AACTGTCC,0.029
16,TCGCTTAA,0.107
17,AAAGTGTA,-0.244
18,TTGAACAA,-0.24
19,AGACCGTA,0.144
20,CCCGGCAG,0.226
21,CAAGGATC,-0.125
22,ATCTAAGG,-0.171
23,ATCCGTGA,0.151
24,ACCTAACG,-0.0677
25,GACCTCGA,-0.102

row,Sequence,PBM E-score
1,ACTAGATC,-0.0408
2,ATGCGTGG,-0.15
3,CAAGCCCC,0.145
4,GAGCGGCA,0.357
5,ACTAGCTG,-0.197
6,AACCCAAA,-0.153
7,CAGTGACA,-0.271
8,ATATAAAT,0.166
9,AGTTAGCG,-0.0972
10,CCCGCGAC,0.281
11,CACTTAGA,-0.0281
12,GTAACAGA,-0.00141
13,CGTTACAA,-0.112
14,GGAACGCA,-0.0726
15,ATAACGAG,-0.103
16,GGACTCAA,0.269
17,TACCAGTA,-0.0102
18,CTATCCTC,-0.0779
19,ATATCGGC,0.278
20,GGAAGTAC,0.261
21,GTGCTGAA,-0.115
22,ACCGACGA,0.354
23,GTCCCGAC,0.3
24,CATTAGGA,-0.0595
25,GAAGACTC,-0.0722

row,Sequence,PBM E-score
1,TATTAAAA,0.101
2,GGTCGTAC,0.0865
3,GGGTGGAA,-0.00532
4,ACCGCGGT,0.39
5,AGGTAGAT,-0.184
6,CCCTTCCG,0.114
7,ATATATCC,0.398
8,ACGCATTG,-0.216
9,ATTAGAAT,-0.159
10,AACGCGAT,-0.137
11,CTGCAAAA,-0.127
12,CGCCAGAG,0.0677
13,ATTACAGC,0.0736
14,CCGAGATC,0.169
15,CAGAACCA,-0.292
16,AAAAGATG,-0.173
17,GATCGTAA,-0.24
18,CCCAACTC,-0.0147
19,CAAGGTTC,-0.145
20,GACAAGAA,0.0873
21,AAAACCTT,0.00349
22,CATGGGCC,-0.107
23,GACGTCGC,-0.274
24,ACCTGGTG,-0.0417
25,AAAGGAGT,0.0801

row,Sequence,PBM E-score
1,CGTCAGGA,-0.106
2,GACTGAAC,-0.0643
3,GATGTACA,0.0105
4,GGTCCAAC,0.0671
5,AATCGCGG,0.198
6,CACCTGCC,-0.0477
7,ACAGAATC,-0.16
8,AGATGTAT,-0.221
9,TATATTAA,0.0913
10,ACTGCGAC,0.202
11,AAACGAGG,-0.213
12,ACCGCTAG,0.26
13,CAGTAGCG,0.123
14,AACTTGTC,-0.0353
15,TAACTCGA,-0.135
16,CTAGGTAA,-0.192
17,ACACGTGA,-0.103
18,AAAAAGTA,-0.109
19,CCCTTTAC,0.0164
20,ACTAGAGT,-0.142
21,AATCTGCG,0.145
22,AACAGTAA,-0.0605
23,ACAGCTCT,-0.34
24,CTCTAGAG,-0.283
25,ACTGTTAA,0.0508

row,Sequence,PBM E-score
1,AATGGATA,0.135
2,AACTTTCG,-0.138
3,ACGCCCGC,0.28
4,CAACGATG,-0.158
5,GATGACAC,-0.0254
6,GTGGGCCA,-0.0853
7,CATCGTCA,-0.101
8,GTTCAGCA,-0.246
9,GTCTGTCA,-0.0781
10,CCCTCTGA,-0.0305
11,AGGAAAAG,-0.0495
12,ATCGAGGC,0.00531
13,CCGGTTGA,0.28
14,TGCAAAAA,-0.21
15,GGGGATTA,0.326
16,ATCGTGGC,-0.223
17,ATTTCTCG,0.0306
18,AGGAGCGC,0.0237
19,GGCTGATA,0.122
20,GGCTGCCC,-0.265
21,GAATTACC,0.194
22,GTACGGAC,0.223
23,ACGAGCGG,0.301
24,GCGCCAGC,0.112
25,ATCCCGGA,0.131

row,Sequence,PBM E-score
1,CAACCAGC,-0.168
2,AAATGGAT,-0.168
3,ACAGGGGG,-0.194
4,CGAGTATC,0.0271
5,AACCGCGC,0.273
6,GAAGTTCA,-0.189
7,AGGGCCGC,0.36
8,AACCAGGT,-0.262
9,ACTTTCGC,-0.118
10,AGGTGGAG,-0.162
11,CTAGCTAG,-0.235
12,GAAACAAA,0.00633
13,CGATGCGA,-0.0934
14,AGACGACC,-0.193
15,GCTAGTCC,0.0729
16,AGCGACCT,-0.0491
17,AATTCTCA,-0.167
18,AAAGAAAG,-0.00166
19,AATAGCAT,-0.131
20,AGCTCTGA,-0.246
21,CGGATGGA,0.0297
22,GCCTTATA,0.131
23,AATGATCT,-0.281
24,AGCATACC,-0.102
25,CCAAAAGC,-0.0336

row,Sequence,PBM E-score
1,CAGGCATC,-0.241
2,AGGATTAT,-0.114
3,ATCGAACC,-0.103
4,ACAACTCG,-0.042
5,ACAGTACC,0.0909
6,CATTTACC,-0.0221
7,AGCATGAG,-0.148
8,CGTTTCAG,0.0487
9,ACGTACCC,0.0314
10,CACAGTCA,-0.367
11,AATATGTG,-0.156
12,CGTCAAAG,-0.212
13,CCTTATAA,0.148
14,GTGTGGGA,0.00786
15,CGAAAACG,-0.00617
16,CATTCATC,-0.0199
17,TCAGCGGA,0.292
18,AACATTAG,-0.222
19,TACAAAAA,-0.0475
20,CAGACGGC,0.111
21,GCACAGGC,0.0152
22,AGCAGGCG,0.116
